Measurements reported in PubChem BioAssay (Tox21).
Several values for one entry are separate records, joined by “and”; a condition that tells them apart may be missing. Equal values may be shown once. This list was built around the results that the source calls inconclusive (neither active nor inactive); the mix of calls is not that of the screen. For some of these results: Where the call is inconclusive, the potency comes from a doubtful curve fit. A structure can be active in one record and inactive in another. Activity calls are given as the source filed them. Unless noted, the call rests on the fitted dose curve; in most records, active means well fitted curve in the direction sought with a large enough effect in the repeat runs; inconclusive means weak or mixed curves; inactive means no such curve, though single readings can be large; an effect the other way counts as inactive or inconclusive.

How the values were obtained:
[1] = qHTS assay to identify small molecule agonists of the estrogen receptor beta (ER-beta) signaling pathway - cell viability counter screen (AID 1259380); further: nearly all actives have a fitted effect of over 30% in size; further: potency means the concentration at half of the fitted maximal effect
Summary of the method: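 CellTiter-Glo read, 30 min RT, same wells as bla assay; cells ER-beta-UAS-bla HEK293T; 16 hr compound, 37C; medium 2% charcoal-stripped FBS.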

[2] = qHTS assay to identify small molecule agonists of the estrogen receptor alpha (ER-alpha) signaling pathway in the presence of an antagonist - cell viability counter screen (AID 1259386);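 further: potency means the concentration at half of the fitted maximal effect; cells exposed to compounds for 22 h at 37 °C before the viability read; nearly all actives have a fitted effect of over 30% in size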
Summary of the method: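 Viability counter screen using VM7Luc4E2 (full-length ER-alpha, four ERE-luciferase). The cells were treated with compounds alongside ICI-182,780 10.0nM for 22hr, and live-cell protease fluorescence was quantified with CellTiter-Fluor.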

[3] = biological target: Progesterone receptor (Homo sapiens) (UniProt P06401); assay: qHTS assay to identify small molecule antagonists of the progesterone receptor (PR) signaling pathway (AID 1346795; active means well fitted inhibition curve with a large enough effect in the signal ratio in the repeat runs, not every such curve was filed as active; inconclusive means weak or mixed curves; the % refers to the signal ratio; further: potency means the concentration at half of the fitted maximal effect; on activity change, negative = inhibition: on the % scale 0 is the no-effect control and ±100 the full control effect); details: PR-UAS-bla HEK293T, beta-lactamase FRET ratio, 16 h; activity change, negative = inhibition: at 92.4 µM (top of the series) unless noted
Sequence of UniProt P06401 (P06401 whole entry, looked up): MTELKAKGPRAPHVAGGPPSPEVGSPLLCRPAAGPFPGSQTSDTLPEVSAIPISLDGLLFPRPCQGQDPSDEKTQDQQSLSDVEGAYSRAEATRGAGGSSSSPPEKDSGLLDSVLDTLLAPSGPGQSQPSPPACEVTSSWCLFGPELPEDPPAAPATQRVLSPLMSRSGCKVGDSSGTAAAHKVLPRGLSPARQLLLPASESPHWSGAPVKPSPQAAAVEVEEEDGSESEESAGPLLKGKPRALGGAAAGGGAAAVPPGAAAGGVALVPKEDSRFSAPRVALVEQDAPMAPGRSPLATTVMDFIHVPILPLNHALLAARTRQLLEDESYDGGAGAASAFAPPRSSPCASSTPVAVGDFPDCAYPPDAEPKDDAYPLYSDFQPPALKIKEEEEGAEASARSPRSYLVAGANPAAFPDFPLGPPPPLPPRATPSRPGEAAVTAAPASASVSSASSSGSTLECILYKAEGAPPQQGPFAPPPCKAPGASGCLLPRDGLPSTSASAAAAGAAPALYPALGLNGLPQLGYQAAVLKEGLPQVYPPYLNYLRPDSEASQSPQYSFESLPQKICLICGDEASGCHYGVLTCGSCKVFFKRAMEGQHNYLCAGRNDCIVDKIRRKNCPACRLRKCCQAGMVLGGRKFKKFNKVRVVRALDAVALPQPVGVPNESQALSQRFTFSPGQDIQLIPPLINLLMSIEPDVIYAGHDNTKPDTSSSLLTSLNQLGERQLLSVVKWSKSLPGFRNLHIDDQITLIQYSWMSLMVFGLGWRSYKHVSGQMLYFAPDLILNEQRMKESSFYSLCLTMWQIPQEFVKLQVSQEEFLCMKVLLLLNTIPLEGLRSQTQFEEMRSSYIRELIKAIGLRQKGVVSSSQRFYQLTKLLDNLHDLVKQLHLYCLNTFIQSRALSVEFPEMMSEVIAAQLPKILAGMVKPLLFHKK
Summary of the method: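 After 6 hr plating at 37C in 2% stripped-serum medium, PR-UAS-bla HEK293T cells got compounds, then 1 nM R5020. Sixteen hours later, LiveBLAzer substrate was applied for 2 hr at room temperature and fluorescence was recorded.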

[4] = qHTS assay to identify small molecule antagonists of the progesterone receptor (PR) signaling pathway - cell viability counter screen (AID 1346798); further: potency means the concentration at half of the fitted maximal effect; nearly all actives have a fitted effect of over 50% in size
Summary of the method: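 Viability was determined by ATP-based luminescence (CellTiter-Glo) in PR-UAS-bla HEK293T cells cultured in 2% charcoal-stripped serum and incubated 16 hr with compounds under R5020 stimulation.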

[5] = qHTS assay to identify small molecule agonists of the progesterone receptor (PR) signaling pathway - cell viability counter screen (AID 1346799; calls by dose curve; further: nearly all actives have a fitted effect of over 45% in size; further: potency means the concentration at half of the fitted maximal effect)
Summary of the method: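 Viability was scored by ATP luminescence (CellTiter-Glo, 30 min, room temperature) in the same wells used for the reporter readout, after 16 hr compound exposure of PR-UAS-bla HEK293T cells.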

[6] = qHTS assay to identify small molecule antagonists of the TGF-beta/Smad signaling pathway (AID 1346924; active means well fitted inhibition curve with a large enough effect in the signal ratio in the repeat runs, not every such curve was filed as active; inconclusive means weak or mixed curves; the % refers to the signal ratio); details: SBE-bla HEK293T, TGF-beta/Smad reporter, beta-lactamase ratio; activity, negative = inhibition: at 76.8 µM (top of the series) unless noted
Summary of the method: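 SBE-bla HEK 293T cells were plated overnight, then received compound in DMSO plus TGF-beta1 (added as a 0.25 ng/mL solution) and were incubated 5 h at 37 C. Beta-lactamase reporter activity was read after 2 h at room temperature with LiveBLAzer B/G FRET substrate (ex 405, em 460/530 nm).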

[7] = Human pregnane X receptor (PXR) small molecule agonists, qHTS cell viability counter screen (AID 1346977); further: potency means the concentration at half of the fitted maximal effect; nearly all actives have a fitted effect of over 50% in size
Summary of the method: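 HepG2 cells stably carrying the PXR-Luc reporter are cultured with 5% charcoal-stripped FBS and treated with compounds for 24hr. CellTiter-Fluor is added at 23hr and fluorescence is read after 1hr.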

[8] = Caspase-3/7 induction in CHO-K1 cells by small molecules, qHTS cell viability counter screen (AID 1346979); further: nearly all actives have a fitted effect of over 35% in size; further: potency means the concentration at half of the fitted maximal effect
Summary of the method: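 Seeding: 1,500 CHO-K1 cells/well. Rest: 5hr, 37C. Treatment: compounds in DMSO, 16hr. Read: CellTiter-Fluor, 1hr, fluorescence.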

[9] = qHTS assay to identify small molecule agonists of the TGF-beta/Smad signaling pathway (AID 1346859; active means well fitted activation curve with a large enough effect in the signal ratio in the repeat runs, not every such curve was filed as active; inconclusive means weak or mixed curves; the % refers to the signal ratio; further: potency means the concentration at half of the fitted maximal effect); details: SBE-bla HEK293T, TGF-beta/Smad beta-lactamase reporter, 5 h; activation: at 76.8 µM (top of the series)
Summary of the method: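 Dual-wavelength fluorescence (460/530 nm emission) quantified beta-lactamase expression under the Smad binding element in HEK 293T cells following 5 hr compound treatment at 37 C.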

[10] = qHTS assay to identify small molecule agonists of the TGF-beta/Smad signaling pathway - cell viability counter screen (AID 1346829); further: potency means the concentration at half of the fitted maximal effect; nearly all actives have a fitted effect of over 45% in size
Summary of the method: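 Same-well cytotoxicity: CellTiter-Glo added after the 2 hr room-temperature beta-lactamase substrate step, luminescence measured 30 min later; cells had 5 hr of compound at 37 C.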

[11] = biological target: Progesterone receptor (Homo sapiens) (UniProt P06401); assay: qHTS assay to identify small molecule agonists of the progesterone receptor (PR) signaling pathway (AID 1346784; calls by dose curve; further: nearly all actives have a fitted effect of over 30% in size; further: potency means the concentration at half of the fitted maximal effect; on activation: on the % scale 0 is the no-effect control and ±100 the full control effect); details: PR-UAS-bla HEK293T, beta-lactamase FRET ratio, 16 h; activation: at 92.4 µM (top of the series) unless noted
Summary of the method: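 The screen uses PR-UAS-bla HEK 293T cells in charcoal-stripped serum (2%). Compounds are applied for 16 hr at 37C after a 6 hr pre-incubation, and reporter activity is detected with a FRET beta-lactamase substrate after 2 hr at room temperature.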

[12] = Caspase-3/7 induction in HepG2 cells by small molecules, qHTS assay (AID 1346978); further: potency means the concentration at half of the fitted maximal effect; nearly all actives have a fitted effect of over 15% in size
Summary of the method: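 Caspase-3/7 induction was measured by Caspase-Glo 3/7 luminescence (30 min, room temperature) after a 17 hr compound exposure of wild-type HepG2 cells seeded at 2,000 per well and pre-incubated 5 hr.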

[13] = Caspase-3/7 induction in CHO-K1 cells by small molecules, qHTS assay (AID 1346980); further: potency means the concentration at half of the fitted maximal effect; nearly all actives have a fitted effect of over 15% in size
Summary of the method: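 Luminescent Caspase-Glo 3/7 read (30min, room temperature) quantified apoptosis induction. Cells were wild-type CHO-K1, treated with compound for 17hr at 37 C and 5% CO2.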
Tags describe the fitted curve by direction and shape or compound fluorescence and quenching.

CC(C)Oc1cc(-n2nc(C(C)(C)C)oc2=O)c(Cl)cc1Cl
Potency [1]: inactive
Potency [2]: inconclusive: 68.6 µM [cytotoxic, single point]
Potency [3]: active: 24 µM and active: 24.3 µM
Potency [4]: inconclusive: 77 µM [cytotoxic, single point]
Potency [5]: inconclusive: 75.9 µM [cytotoxic, single point]
activity, negative = inhibition [6]: inconclusive: -3%
Potency [7]: inconclusive: 70.8 µM [cytotoxic, single point] and inconclusive: 77 µM [cytotoxic, partial curve, poor fit]
Potency [8]: inconclusive: 67.6 µM [cytotoxic, single point] and active: 61.1 µM

CCC(C)c1cc([N+](=O)[O-])cc([N+](=O)[O-])c1OC(=O)C=C(C)C (stereo unspecified)
Potency [1]: inactive
Potency [2]: active: 54.5 µM
Potency [3]: active: 12.2 µM
Potency [4]: inconclusive: 6.11 µM [rising, full curve, poor fit]
Potency [5]: inconclusive: 7.7 µM
Potency [9]: inconclusive: 17.4 µM [rising, partial curve]
activity, negative = inhibition [6]: inconclusive: -23.5%

CCCCCCC1CCOC1=O (stereo unspecified)
Potency [1]: inactive
Potency [3]: inactive
Potency [5]: inactive
Potency [8]: inactive

COc1ccc(C(CN(C)C)C2(O)CCCCC2)cc1 (stereo unspecified)
Potency [1]: inactive
Potency [3]: inconclusive: 2.66 µM
Potency [5]: inactive

CC(C)[C@H](C(=O)O[C@H](C#N)c1cccc(Oc2ccccc2)c1)c1ccc(Cl)cc1
Potency [1]: inconclusive: 27.3 µM [cytotoxic, single point]
Potency [4]: inconclusive: 24.3 µM [rising, full curve]
Potency [5]: inconclusive: 19.3 µM [rising, full curve]
Potency [10]: inconclusive: 69.1 µM [cytotoxic, partial curve, poor fit]
Potency [8]: inconclusive: 76.9 µM [cytotoxic, single point]

CC(C)NC(=O)N1CC(=O)N(c2cc(Cl)cc(Cl)c2)C1=O
Potency [1]: inconclusive: 68.6 µM [cytotoxic, single point] and inconclusive: 77 µM [cytotoxic, single point]
Potency [4]: inconclusive: 68.6 µM [rising, single point]
activity, negative = inhibition [6]: inconclusive: -22.5%
Potency [7]: active: 50.1 µM
Potency [8]: active: 19.3 µM

O=c1c(C2CC(c3ccc(-c4ccc(Br)cc4)cc3)Cc3ccccc32)c(O)sc2ccccc12 (stereo unspecified)
Potency [1]: inconclusive: 7.5 µM [cytotoxic, single point]
Potency [2]: inconclusive: 33.5 µM [cytotoxic, single point]
activity change, negative = inhibition [3]: inconclusive: -40.2% [at 42.5 µM]
Potency [5]: inconclusive: 10.6 µM [rising, partial curve]

CCOC(=O)CC(SP(=S)(OC)OC)C(=O)OCC (stereo unspecified)
Potency [1]: inconclusive: 24.3 µM [cytotoxic, full curve]
Potency [11]: active: 1.37 µM
Potency [4]: inconclusive: 24.3 µM [cytotoxic, partial curve, poor fit]
Potency [5]: inconclusive: 0.077 µM [cytotoxic, full curve, poor fit]
activity, negative = inhibition [6]: inconclusive: 1.04%

Sc1ccccc1Cl
Potency [1]: inactive
Potency [3]: inactive
Potency [5]: inactive

CCCCCCC[CH2][Sn]([Cl])([Cl])[CH2]CCCCCCC
Potency [1]: inconclusive: 68.5 µM [cytotoxic, single point]
activation [11]: inconclusive: -3.51%
activity change, negative = inhibition [3]: inconclusive: -15.3%
Potency [4]: inconclusive: 48.5 µM [rising, partial curve, poor fit]
Potency [5]: inconclusive: 54.4 µM [rising, partial curve]
activity, negative = inhibition [6]: inconclusive: 9.1%
Potency [7]: inconclusive: 68.5 µM [cytotoxic, single point]
Potency [12]: inconclusive: 68.5 µM [activator]
Potency [13]: active: 68.5 µM

CCOC(=O)C1(c2ccccc2)CCN(CCc2ccc(N)cc2)CC1
Potency [1]: inconclusive: 6.68 µM [cytotoxic, partial curve]
Potency [2]: inconclusive: 23.7 µM [cytotoxic, partial curve, poor fit]
Potency [5]: inactive
Potency [7]: inconclusive: 29.8 µM [cytotoxic, partial curve, poor fit]

CC(C)c1cccc(C(C)C)c1O
Potency [1]: inconclusive: 68.4 µM [cytotoxic, single point]
Potency [3]: inactive
Potency [12]: inconclusive: 68.4 µM [activator, single point]
Potency [8]: inconclusive: 76.7 µM [cytotoxic, single point]
